Results from PMC7138851, “Quantitative assessment of the determinant structural differences between redox-active and inactive glutaredoxins” (Nature Communications, 2020).
Entries with a single value are a further part of the results.

Experiments:
[1] = substrate: N[C@@H](CCC(=O)N[C@@H](CS)C(=O)NCC(=O)O)C(=O)O; test: purified protein, by the assay type; set-up: GSSCys oxidoreductase assay, GR-coupled NADPH consumption at 340 nm, apparent Km from Hanes plots; settings: pH 8.0, 25.0 °C
Procedure: (§1) Steady-state kinetics of wild-type and mutant ScGrx7 and HsGrx5^C122S in the GSSCys and [compound left out] assays were determined spectrophotometrically by monitoring the consumption of NADPH at 340 nm and 25 °C using a thermostated Jasco V-650 UV/vis spectrophotometer[11],[19],[25]. Fresh stock solutions of NADPH, GSH, GR, and GSSCys or [compound left out] were prepared in assay buffer containing 0.1 M Tris/HCl, 1 mM EDTA, pH 8.0 before each experiment. Both assays were performed with 0.1 mM NADPH and 1 U/ml ScGR. The following final protein concentrations were used for Y110F/H/A (5–150 nM), D144A/K (10 nM), E147A/K (10 nM), R153A/E (25–50 nM), ScGrx7^WP (20 nM), ScGrx7^loop (up to 1.4 µM), ScGrx7^WP+loop (up 2.6 µM), HsGrx5^C122S (up to 15 µM), HsGrx5^RR (up to 12 µM), HsGrx5^loop (up to 1.6 µM), and HsGrx5^RR+loop (up to 4.0 µM). For the GSSCys assays, GSH was varied between 50 µM and 1.5 mM at fixed GSSCys concentrations (25, 50, 100, and 150 µM). NADPH, GSH, and GR were mixed in assay buffer before Grx was added and a baseline was recorded for 30 s. All GSSCys assays were started by the addition of GSSCys. The absorbance of a reference cuvette containing all components but no Grx was measured in parallel and subtracted from the obtained Grx activity. For the [compound left out] assays, GSH was varied between 100 µM and 2.0 mM at fixed concentrations of [compound left out] (0.18, 0.37, 0.55, and 0.74 mM). NADPH, GSH, and [compound left out] were preincubated in assay buffer for 2 min before GR was added and a baseline was recorded for 30 s. All [compound left out] assays were started by the addition of enzyme. Kinetic data were analyzed in Excel and SigmaPlot 13 by nonlinear and linear regression according to Michaelis–Menten, Lineweaver–Burk, Eadie–Hofstee, and Hanes theory[11],[19],[25]. 29 Supplementary Figure 15 Supplementary Figure 15 | GSSCys assay steady-state kinetics of HsGrx5loop and HsGrx5RR+loop . (a) Hanes plots of the GSH-dependent reaction velocity at different initial concentrations of GSSCys. […] (c) Lineweaver-Burk plots of the GSSCys-dependent reaction velocity at different initial concentrations of GSH. Data points and error bars are the mean ± s.d. from three independent protein purification experiments and were plotted and fitted in SigmaPlot 13 according to Hanes, Lineweaver-Burk and Eadie-Hofstee theory. Data points in brackets were omitted from the regression analysis when the kcat app or Km app values from all four plots varied by more than 10% and converged after removal of the outlier. True kinetic constants were estimated from secondary plots in Supplementary Fig. 16 and are listed in Supplementary Table 7. Selected apparent kinetic constants from linear regression analyses of Hanes plots are listed in Supplementary Table 9. The activities of HsGrx5 and HsGrx5RR were similar to the NADPH consumption of negative controls without enzyme and could not be analyzed.

[2] = substrate: N[C@@H](CCC(=O)N[C@@H](CSSC[C@H](N)C(=O)O)C(=O)NCC(=O)O)C(=O)O; test: purified protein, by the assay type; set-up: GSSCys oxidoreductase assay, GR-coupled NADPH consumption at 340 nm, apparent Km from Hanes plots; settings: pH 8.0, 25.0 °C
Procedure: as §1

B1: HsGrx5 (Homo sapiens; C122S/DEL60-64/P65T/Q66G) (protein)
chain: AGSGAGGGGSAEQLDALVKKDKVVVFLKTGCGFSNAVVQILRLHGVRDYAAYNVLDDPELRQGIKDYSNWPTIPQVYLNGEFVGGSDILLQMHQNGDLVEELKKLGIHSALLDEKKDQDSK
notes: E. coli XL1-Blue, pQE30; N-terminal MRGS(H)6 tag; C122S in all constructs
B1 showed a Km ([1]; 50 µM GSSCys) of 17.7 ± 8.9 µM, a Km ([1]; 100 µM GSSCys) of 47.6 ± 30 µM and a Km ([1]; 150 µM GSSCys) of 59.9 ± 15 µM. For the same protein, the Km ([1]; lowest tested GSSCys concentration) was 10.2 ± 5.3 µM, the Km ([2]; 50 µM GSH) was 156 ± 19 µM and the kcat ([2]; 50 µM GSH) was 0.24 s⁻¹. The Km ([2]; 200 µM GSH) was 563 ± 58 µM, the kcat ([2]; 200 µM GSH) was 0.88 ± 0.06 s⁻¹ and the Km ([2]; 500 µM GSH) was 2703 ± 119 µM. It also gave a kcat ([2]; 500 µM GSH) of 4.33 ± 0.21 s⁻¹.
